Laboratory results reported in PMC4336329 (PLoS ONE, 2015).
Among all 310,000 compounds or so, about 2,200 (0.71%) showed an effect of 50% or more. The effect is printed as a negative number. Some of the results follow.

These compounds were tested against human ether-à-go-go-related gene (hERG) potassium channel (human, UniProt Q12809) (assay: primary screen, population patch clamp on CHO cells stably expressing hERG).
Sequence of human ether-à-go-go-related gene (hERG) potassium channel (Q12809 whole entry, looked up): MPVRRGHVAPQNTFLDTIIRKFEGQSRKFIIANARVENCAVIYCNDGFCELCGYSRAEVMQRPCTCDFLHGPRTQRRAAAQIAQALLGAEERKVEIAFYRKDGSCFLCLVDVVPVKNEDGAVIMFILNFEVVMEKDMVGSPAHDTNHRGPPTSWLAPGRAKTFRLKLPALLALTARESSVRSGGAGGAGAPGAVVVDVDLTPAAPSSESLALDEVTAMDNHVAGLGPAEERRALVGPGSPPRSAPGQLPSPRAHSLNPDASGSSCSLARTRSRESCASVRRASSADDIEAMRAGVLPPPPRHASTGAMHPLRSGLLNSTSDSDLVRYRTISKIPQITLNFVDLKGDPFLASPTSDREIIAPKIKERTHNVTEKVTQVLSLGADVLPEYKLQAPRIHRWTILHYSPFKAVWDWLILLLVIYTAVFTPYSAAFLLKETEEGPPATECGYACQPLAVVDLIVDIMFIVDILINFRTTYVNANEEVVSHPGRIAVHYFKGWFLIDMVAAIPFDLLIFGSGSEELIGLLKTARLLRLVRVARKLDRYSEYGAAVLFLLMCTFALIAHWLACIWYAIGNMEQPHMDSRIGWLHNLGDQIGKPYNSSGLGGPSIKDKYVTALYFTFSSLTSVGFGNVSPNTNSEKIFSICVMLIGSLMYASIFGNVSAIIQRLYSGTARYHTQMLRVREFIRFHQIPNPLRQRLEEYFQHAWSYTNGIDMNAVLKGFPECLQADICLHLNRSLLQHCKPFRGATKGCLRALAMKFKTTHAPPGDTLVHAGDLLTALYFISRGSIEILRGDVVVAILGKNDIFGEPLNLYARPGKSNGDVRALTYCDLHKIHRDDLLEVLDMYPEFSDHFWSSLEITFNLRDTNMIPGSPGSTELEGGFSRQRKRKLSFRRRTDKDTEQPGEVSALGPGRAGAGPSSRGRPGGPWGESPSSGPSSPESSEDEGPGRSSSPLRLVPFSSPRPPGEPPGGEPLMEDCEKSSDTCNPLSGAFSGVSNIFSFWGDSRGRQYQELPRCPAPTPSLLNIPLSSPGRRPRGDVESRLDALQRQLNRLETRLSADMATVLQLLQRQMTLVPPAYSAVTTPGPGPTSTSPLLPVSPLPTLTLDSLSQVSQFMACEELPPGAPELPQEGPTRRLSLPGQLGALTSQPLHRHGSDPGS

| Structure (SMILES) | hERG current change (%, negative = inhibition) at 1uM |
| --- | --- |
| COc1ccc(-c2nnc(SCc3cccc(C)c3)n2N)cc1 | 2.01% |
| COc1ccc(N2CCN(S(=O)(=O)c3ccc(OC)c(C(=O)N4CCOCC4)c3)CC2)cc1 | 1.61% |
| COc1cccc(NC(=S)NC(=O)c2cncc(Br)c2)c1 | 7.84% |
| CCOc1ccccc1N(CC(=O)NC1CCCCC1)C(=O)CCC(=O)Nc1nccs1 | -12% |
| Cc1ccnc(NC(=O)c2ccc(COc3ccc(Cl)cc3)o2)c1 | 10.2% |
| COc1cccc(/C=N/NC(=O)CNC(=O)/C=C\c2ccccc2)c1O | 2.22% |
| O=C(CSc1nnc(-c2cccnc2)n1Cc1ccco1)N1c2ccccc2Sc2ccccc21 | 1.44% |
| O=C(c1cnccn1)N1CCN(c2ccccc2F)CC1 | 9.98% |
| Cc1ccccc1-n1nc(C(=O)c2cccs2)cc(-c2nc3ccccc3[nH]2)c1=N | 10.2% |
| Cn1c(SCC(=O)N2CCOCC2)nnc1-c1cnccn1 | 15.4% |
| COc1cccc(CN2CCN(C(c3ccccc3)c3ccccc3)CC2)c1O.O=C(O)C(=O)O | 11.6% |
| CCN(C(=O)C(C)Sc1ccc(S(=O)(=O)N2CCOCC2)cn1)c1ccccc1 (centres unmarked) | 10.9% |
| O=[N+]([O-])c1ccc(S(=O)(=O)NCC(c2ccco2)N2CCc3ccccc3C2)cc1 (centres unmarked) | 5.76% |
| O=C(NC1CCN(S(=O)(=O)c2cccc(F)c2)CC1)c1cccc(F)c1 | 18.4% |
| CCCCC(=O)N/N=C(\C)CC(=O)Nc1cc(Cl)ccc1OC | 7.39% |
| CCCCNC(=O)CCn1c(=O)c2ccccc2n(Cc2ccccc2C)c1=O | 1.91% |
| COc1ccc(C(CNCC(=O)Nc2ccccc2F)N(C)C)cc1.O=C(O)C(=O)O (centres unmarked) | -12.8% |
| O=C(CN(C(=O)CNC(=O)c1ccco1)c1ccc2c(c1)OCO2)NC1CCCCC1 | 1.98% |
| Cc1cccc(SCc2noc(C(=O)NCC3CCCO3)c2C(=O)O)c1 (centres unmarked) | 14.9% |
| CC1OC(Nc2cccc3ccccc23)C(O)C(O)C1O (centres unmarked) | 4.15% |
| O=C1CN(C(=O)CSc2nc3ccccc3c(=O)n2CCCN2CCOCC2)c2ccccc2N1 | -3.05% |
| O=C(Nc1nnc(-c2ccc3c(c2)CCCC3)o1)C1CCCCC1 | 9.2% |

| Structure (SMILES) | hERG current change (%, negative = inhibition) at 1uM |
| --- | --- |
| Cl.N[C@@H](CCl)C(=O)O | 7% |
| COc1ccc(S(=O)(=O)N2CCCC(C(=O)NCCCn3ccnc3)C2)cc1OC (centres unmarked) | 12.5% |
| COC(=O)c1ccc(CSc2nnc(N)s2)o1 | 13.3% |
| O=C(NCCSc1c[nH]c2ccccc12)c1ccc2c(c1)OCO2 | 1.98% |
| COc1ccc(CCNC(=O)C(C)Sc2ccccc2)cc1OC (centres unmarked) | 13.2% |
| O=S(=O)(c1ccc(Br)s1)N1CCN(c2ccccn2)CC1 | 11.1% |
| Cc1ccc(NS(=O)(=O)c2ccc3c(c2)n(C)c(=O)n3C)cc1C | 13.2% |
| CN(Cc1ccco1)S(=O)(=O)c1ccc2c(c1)CCN2C(=O)CCC(=O)O | 18.7% |
| COc1ccc(NC(=O)CSc2nc(C)cc(C)n2)c([N+](=O)[O-])c1 | 14.5% |
| COc1ccc(N2CCN(Cc3nc(Cc4cccc(F)c4)no3)C(C)C2)cc1 (centres unmarked) | 1.71% |
| Cc1c(C=O)c2ccccc2n1Cc1cccc(F)c1 | 7.37% |
| O=C(COC(=O)CCNS(=O)(=O)c1ccccc1)Nc1ccc(OC(F)F)cc1 | -2.95% |
| CC(C)OC(=O)c1ccc(NC(=O)c2ccco2)cc1 | 6.19% |
| S=C(Nc1ccc2c(c1)OCCO2)Nc1ccccc1Cl | 14.8% |
| Cc1cccc(-c2nnc(NC(=O)c3ccco3)s2)c1 | 18.3% |
| COc1ccc(CCNC(=O)C2CCN(Cc3nc(-c4ccccc4C)oc3C)CC2)cc1OC | -59.9% |
| COc1ccc(C(=O)Nc2c(N)nc(SCC(=O)Nc3ccc(C(C)=O)cc3)[nH]c2=O)cc1 | 10.3% |
| O=S(=O)(c1ccc(-c2n[nH]c(=S)o2)cc1)N1CCCCC1 | 24% |
| Cc1ccc(NC(=O)NC(=O)N(C(C)C)S(=O)(=O)c2ccc(C)cc2)cc1 | 10.2% |
| O=C(N=C1SC2CS(=O)(=O)CC2N1c1ccc(F)c(Cl)c1)C1CCCO1 (centres unmarked) | 11.4% |
| COc1ccccc1-c1nnc(C2CCN(S(=O)(=O)c3cccc([N+](=O)[O-])c3)CC2)o1 | -21.4% |
| Nc1cccc2c1nnn2C1OC(CO)C(O)C(O)C1O (centres unmarked) | 16% |

| Structure (SMILES) | hERG current change (%, negative = inhibition) at 1uM |
| --- | --- |
| COC(CNC(=O)C(=O)NCC1OCCN1C(=O)c1ccc(Cl)cc1)OC (centres unmarked) | 14.2% |
| COc1cccc(C(=O)C2CCCN(Cc3cn(CC(N)=O)c4ccccc34)C2)c1 (centres unmarked) | -18% |
| CC(C)(C)OC(=O)NCCCC[C@H](NC(=O)c1nc[nH]c1C(=O)N1CCN(c2ccccc2)CC1)C(=O)OC(C)(C)C | 3.55% |
| Cc1sc2nc(SCC(=O)NCc3ccco3)n(Cc3ccccc3)c(=O)c2c1C | 0.939% |
| O=C(NCC(=O)N1CCCCCC1)c1ccc(Cl)cc1 | 13% |
| CC(=O)/C(=N/Nc1ccc(Br)cc1)N1CCCc2ccccc21 | 9.37% |
| CC(C(=O)Nc1ccccc1Cl)c1ccc([N+](=O)[O-])cc1 (centres unmarked) | 0.442% |
| S=C(Nc1ccccn1)Nc1ccccc1Cl | 14.1% |
| COc1ccc(Cn2nnnc2CN(Cc2cc3ccc(C)cc3[nH]c2=O)C2CCCC2)cc1 | -3.39% |
| COc1ccc(CN(CC(=O)NCC2CCCO2)C(=O)CCC(=O)Nc2cc(C)on2)cc1 (centres unmarked) | 2.92% |
| COc1ccc(/C=C/C(=O)N(Cc2ccccc2)c2ccccn2)cc1OC | -22.2% |
| COc1ccccc1CNC(=O)CNC(=O)c1ccc(Br)o1 | 8.17% |
| COc1ccc(S(=O)(=O)Oc2ccc(C(=S)N3CCOCC3)cc2OC)cc1 | 10.3% |
| Cc1ccc(C)c(N2CCN(C(=O)C3CCCN(S(=O)(=O)c4cnc[nH]4)C3)CC2)c1 (centres unmarked) | 4.47% |
| COc1ccc(N2CCN(C(=O)C3CCN(C(=O)c4ccc([N+](=O)[O-])cc4)CC3)CC2)cc1 | -33.6% |
| Cc1cc(C)c2ccc(=S)[nH]c2n1 | 12% |
| CS(=O)(=O)N(CC(=O)NCCSCc1ccccc1)c1ccccc1 | 9.56% |
| COc1ccc(NC(=O)NC(c2ccccc2)c2ccccc2)c(OC)c1 | 11.3% |
| Cc1ccc(N2C(=O)c3sc4nnc(C)c(=O)n4c3C2=O)cc1 | 3.11% |
| CCC(=O)c1ccc(OCC(O)CN2CCN(C(c3ccccc3)c3ccccc3)CC2)cc1 (centres unmarked) | -51.4% |
| COc1ccc(CNC(=O)C(=O)NCC2OCCN2C(=O)c2ccc(OC)cc2)cc1 (centres unmarked) | 5.83% |
| Cc1cccc(C)c1Nc1nnc(SCC(=O)NCc2ccco2)s1 | 10.7% |

| Structure (SMILES) | hERG current change (%, negative = inhibition) at 1uM |
| --- | --- |
| O=C(CSc1nnnn1-c1ccccc1)Nc1ccc(Cl)cn1 | 7.19% |
| CC(C)n1nnnc1SCC(=O)NCc1cccs1 | 12.3% |
| O=C(/C(C=Nc1cccc(C(F)(F)F)c1)=C(/O)c1ccco1)C(F)(F)F | 16.2% |
| Cc1ccc(S(=O)(=O)N2CCN(C(=O)c3ccccc3)CC2)cc1 | -13.6% |
| Cc1cccc(NC(=O)C2CCCN2C(=O)OCC(C)C)c1 (centres unmarked) | 4.3% |
| COc1ccc(CC(=O)N2CCc3cc(OC)c(OC)cc3C2C)c(OC)c1 (centres unmarked) | 1.6% |
| C=CCN(C(=O)Cn1nc(C)n2c(cc3cc(C)ccc32)c1=O)c1ccccc1 | -2.35% |
| CCN(C(=O)c1cc2c(C)nc3ccccc3c2o1)c1cc(Cl)ccc1OC | -0.548% |
| COC(=O)COc1nc(C)c2c(c1C#N)CC(C)(C)OC2 | 4.35% |
| CCO/C(C)=N/n1c2nc3ccccc3nc2c2c(=O)n(Cc3ccccc3Cl)c(C)nc21 | -0.93% |
| CCCNC(=O)C1CN(S(=O)(=O)c2ccc(C)cc2)c2ccccc2O1 (centres unmarked) | 2.33% |
| CC(C)c1ccc(S(=O)(=O)c2nnn3c2nc(NCC2CCCO2)c2ccccc23)cc1 (centres unmarked) | 2.42% |
| COc1ccc(NC(=S)N(CCCN2CCCC2)Cc2ccco2)cc1 | -3.12% |
| CCN1CCN(C(CNS(=O)(=O)c2ccc(Br)cc2)c2cccnc2)CC1 (centres unmarked) | -26.2% |
| O=[n+]1c2c(n([O-])c3cc(Br)ccc31)CCCC2 | 6.09% |
| CCOC(=O)C1(CCOc2ccccc2)CCN(Cc2ccccc2O)CC1 | -8.86% |
| COc1cccc(N2CCN(C(=S)Nc3ccc(F)cc3)CC2)c1 | 9.41% |
| S=C(Nc1ccccc1Cl)N(Cc1cccnc1)Cc1ccco1 | 4.18% |
| CCOC(=O)CSc1nnc(CNC(=O)c2cccc(C)c2)n1C | 10.7% |
| CC(C)Cn1c(SCC(=O)c2ccc(Cl)s2)nnc1-c1ccco1 | -9.8% |
